Our source for the self-cleavage values is the RNAGym collection of RNA variant scans (doi:10.7554/elife.90254).

Read counts are not given, so values of variants with three or more changes are uncertain.

First the molecules themselves.
B1: LINE1-mini (parent)
chain: GGCAGAGCUCAACACAGCGUGGCAAAGUGGCUGUGGCUAGACUGCC

The variants in this series derive from B1. Briefly: self-cleavage, relative activity (ratio to wild type); higher = more cleavage; in vitro, sequencing; the parent is a self-cleaving ribozyme.
Consider GGCAGAACUCACCACAGCGUGGCAAAGUGGCCGUGCCUAGACUGCC, for which the self-cleavage was found to be 0.04. Consider GGCAGUGCUCAACACAGCGGGGCGAAGUGGCUGUGGCUAGACUGCC, for which the self-cleavage turned out to be 0.37. With GGCAGAACUCUACACAGCGUGGCAACGUGGCUGUGGAUAGAAUGAC the figure was 0.01; with GGCAGUGCGCAACACAGCGUGGCAAAGUGGCUGUGGCUAAAAUGCC, 0.06; with GGCAGAAAUCAACACAAAGUGGCAAAGUGGCUGUGGCUAGACUGCG, 0.27. With GGCAGAACUCAAGACAGCGUGGCAAAGUGACUGUGGCUAGACUGCC the figure was 0.2; with GGCAGAACUCAUCACAGCGUCGCAAAGUGGCUGUGGAUAGACUGCC, 0.01; with GGCAGAACUCAGCACAGCGUGGCAACGUGGCUGUGGCUAGACUGCC, 0.02. For GGCAGAACUCACCACAGCGUGGCAAAGUGCAUGUGGCUAGACUGUC the value was 0.02. For the variant GGCAGUGCUCAACACAGCGUGGCAAAGUGGCUGGGGUUAGACUGCA, the self-cleavage was 0.04. With GGCAGAACUCAACCCAGCGUGGCAAAGUGGCUGUGUCUAGACUGCC the figure was 0.16; with GGCAGAAUUCAGCACAGCGUAGCAAAGUGGCUGUGGCUAGACAGCC, 0.24; with GGCAGAACUCUACACAGCGUGGCAAAGUGGCUGAGGCUAUACUGCC, 0.01. With GGCAGAAAUAAACACAGAGUGGCAAAGUGGCUGUGGCUAGACUGUC the figure was 0.04; with GGCAGAACUCAACACCGCGUGGCAAAACGGCUGUGGGUAGACUGCC, 0.02; with GGCAGAACUUAACACAGCGUGGCAUUGUGUCUGUGGCUAGACUGCC, 0.06. Take GGCAGAAGUCAACACAGCGUGGCCAAGUGGCUGUGGCUAGACUGCC: the self-cleavage came to 0.11. For GGCAGAACUCAAUACAGCGUGGCAUAGUGGCUGUGGCUAGACUGCC the value was 0.06. With GGCAGAACUCAACUCUGCGUGGCAAAGUGGCUGUGGCUAAACAGCC the figure was 0.01. As to GGCAGAACUAAACACUGCGUGGCAAAGUGGCUGUGGCCAGACUGCC, the self-cleavage is 0.02. With GGCAGAACUUAACACAGCGUGGCAAAGUGACUGCGGUUAGACUGCC the figure was 0.03. With GGCAGAACUAAACAAAGCGUGUUAAAGUGGCCGUGGCUAGACUGCC the figure was 0.03; with GGCAGUGCUCAACACAGCGCGCCAAAGUGGCUCUGGCUAGACUGCC, 0.1. For GGCAGAACUCAACACAGCGUGGCGAAGUGGCUGUUUCUAGCCUGCC the value was 0.02. As for GGCAGAACUCAAUACAGCGUGGCAAAGUGGCUGUGGCUAGAUUGCC, the self-cleavage came to 0.01.

Consider GGCAGAACUAAACACAGCGUGGCAAAGUGUCUGUGGCUUGACUGCC, for which the self-cleavage is 0.06.

On to GGCAGUGCGCAAGACUGAGUGGCAAAGUGGCAGUGGCUAGACUGCC, for which the self-cleavage was 0.01. For GGCAGAACUUAACACAGCUUGGCAAAGUGGCUAUGGCUAGACUGCC the value was 0.03; for GGCAGAACUCUACACAGCGUGCCAAAGUGCCGGUGGCUAGACUGCC, 0.02. With GGCAGAACUCCACACAGAGUGCCAAAGUGGCAGUGGCUAUACUGCC the figure was 0. With GGCAGAACUCGACACACCGUGGCAAAGUGGCUGUGGCUGGACUUCC the figure was 0.02; with GGCAGAACUCAGCACAGCGCGGCAAAGUGGCUGUGGCUAGACUGCC, 0.03; with GGCAGAACUCAAGACAACGUGGCAAAGUGGCUGUGGCCAGACUGCC, 0.1.

As to GGCAGAACUCAAGACAGCGUGGCAAAGUGGCUGUGGCUAUACUGCC, the self-cleavage was found to be 0.02. With GGCAGAACUCUACACAGCGUGGCUAAGUGACUGUGGCUAGACUGCC the figure was 0.02; with GGCAGUGCUCAACACAGCGGGGCAAAGUGGCGGUAGCUAGACUGCA, 0; with GGCAGAACUCAAUACGGCUUGGCAAAGUGGCUGUGGCUAGAUUGCC, 0.05. For GGCAGAACUAAACACAGCGUGGCAAAGUGGUUGUGGCUAGACUGCC the value was 0.01; for GGCAGAACUCAAAGCAGGGUGUCAAAGUGGCUGUGGCUCGACUGCG, 0.51; for GGCAGAACUCAACACUGCGUGGCAAAGUGGCUGUGGCUAGACUUCC, 1.22. For GGCAGAAUUGAACACAGCGUGGCAAAGUGGCUGUGGCUCUACUGCC the value was 0.01.

As to GGCAGUGCCCAACACAGAGUGGCAUAGUGGCUGUGGUUAGACUGCG, the self-cleavage is 0.02. With GGCAGUGCUCAACACAGCGUGGCAAAGGGGCUGUUGCUAGACGGCC, the self-cleavage worked out at 0.01. For GGCAGAACUGAACUCAGCGUGGCAAAUUGGCUGUGGCUAGACUGCC the value was 0.01. With GGCAGAACUCUACACAGCGUUGCACAGUGGCUGUGGCUAGGCUGCC the figure was 0.

On to GGCAGAACUCAAAACAGCGUGGCAAAGUGGCUGUGGCUAGACUGAC, for which the self-cleavage worked out at 0.63. For GGCAGAACUCAAAACAGGGUGGCAUAGUGGCUGUGUAUAGACUGCC the value was 0.07.

For the variant GGCAGAAGUCAACACAGCGUGGCAAAGUGGCUGUUGCUAGACUGGC, the self-cleavage stood at 0.1. For GGCAGAACUCAACCCUGCGUGGCAAAGUGGGUGUGGCUAGACUGCC the value was 0.05; for GGCAGUGCUCAACACAGCGUGGCAAAGCGGCUGUGGCUAGACUACC, 1.87; for GGCAGUGCUCAACACAGCGCGGUAAAGUGGCUGUGGCUAGACUGCC, 0.15. For GGCAGUGCUCAACACAGCGCGGCAUAGUGGCUGUGGCUAGACUGCC the value was 0.41; for GGCAGAACUCAAAACAGCGUGGCAAAGUGGCUGUGGCUAGGCUGCC, 0.03; for GGCAGAAGACAACACAGCGUUGGUAUGUGGCUGUGGCUAGACUGCC, 0.05.

Turning to GGCAGAACUUAUCACAGCGUGGCAAAGUGGCUGUGGCUAGACUGCC, the self-cleavage was determined as 0.03.

For the variant GGCAGAACUCACCACAGCGUGGCAAAGUGGCUGUGGCUAGAGGGCC, the self-cleavage was found to be 0. As to GGCAGAACUCGACACAGCGUGGCAAAGAGGCUGUGGCUAGGCUGCC, the self-cleavage is 0.01. With GGCAGAACUGAUCACAGCGUGGCAAAGUGGCUGUGGUUAGACUGCC the figure was 0.01; with GGCAGAACUCAACAGAGCGUUGCAAAGUGGCUGUGGCUAGACUGCC, 0.09; with GGCAGAACUCAACAGAGCGUGGCAAAGUGGAUGUGGCUAGACUGCC, 0.54. For GGCAGAACUCAACAGAGCGUGGCAAAGUGGAUGUGGCUAGAAUGCC, the self-cleavage turned out to be 0.06. For GGCAGAACUAAACACAGCGUGGCAAAGUGGCUGUGGCUUCACUGCC the value was 0; for GGCAGAACUCAACACGGCGUGGCAAAGUGGCUGUGGCUAGACUACC, 0.06.

Regarding GGCAGAAGUCAUCACAGCGUGGCAAAUUGGCUGUGGCUAGACUUCC, the self-cleavage is 0.01.

Regarding GGCAGAACUCUACUCAGCGUGGCAAAGUGGCUGUGCCUAGACUGCC, the self-cleavage worked out at 0.03. For GGCAGAACUCAAUACAGCGUGGCAGAGUGGCUUUUGCUAGACUGCC the value was 0.03; for GGCAGUGCGCAACACAGCGUGGCAAAGUGGCUGUGGCUUGACUGCC, 0.22; for GGCAGAACUCAACACAGCGUGGCAACGUGGCUGCGGCUAGACUGCC, 0.06. With GGCAGAACUCAAGACAACGUGGCAAAGUCGCUGUGGCUAGACUCCC the figure was 0.05. With GGCAGUGCGCAACACAGCGUGGAAGAGUGGCUGUGGCUAGACUGCC the figure was 0.14; with GGCAGAAAUCAAGACAGCUGGGCAAAGUGGCUGUGGCUAGACUGCC, 0.55; with GGCAGAACUCAACACUGCGUGGCAAAGUGGCUGUGUCUAGACUGCC, 0.13. On to GGCAGAACUCAACAAAGCGAGGCACAGUGUCUGUGGCUAGACUGCC, for which the self-cleavage was 0.05.

Turning to GGCAGAAUUCAACACAGCGUGGCAAAGAGGCUGUGGCUAGACUGCC, the self-cleavage was found to be 0.08. For GGCAGAACUCAACACGCCGUGGCAAAGUUGCUGUGACUAGAAUGCC the value was 0.19; for GGCAGAACUCAAUAGAGCGUGGCAAAGUGGAUGUGACUUGACUGCC, 0.05; for GGCAGUGCCCAAGACAGCGUGGCAAAGUGUAUGUGGCUAGACUGCC, 0.01. With GGCAGAAGUCAACACAGGGUGGCACAUUGGCGGUGGCUAGACUGCC the figure was 0.02.

Take GGCAGAACUCAACACGCCGUGGCAAAGUGGCUGUGGCUAUACUGCC: the self-cleavage is 0.09.

As to GGCAGAACUGAACACAGCGUGGCAAUGUGGCUGUGGCUAGACUGCC, the self-cleavage was 0.02. On to GGCAGAACUCUACACAGCGUGGCAAAGUUGCUGUGGCUAGACUGCC, for which the self-cleavage was 0.03. For GGCAGAACUCAACACCGCGUGGCAAAGUGGCUGUGGCUAGACUGUC the value was 0.13. For GGCAGAACUCAACAUAGCGUGGCAAAGUGGCUGUGGUUAGACUGCC the value was 0.1; for GGCAGAAAUCAACACAGCCUGGCAAAGUGGCUGUGGCUAGACUGCC, 0.07; for GGCAGAACUCAAUACAGCGUGGCCAAGUGGCUGUGGCUAGACUACC, 0.21.

GGCAGAACUCAACACUGCGUGGCAAAGUGCCUGUGGCUAGACUGCC: the self-cleavage was 0.13. For GGCAGAACUCUACACAGCGUGGCAAUGUGGCUGUGGCUAGACUGCC the value was 0.07; for GGCAGUGCUCAACACAGCGUGGCAAAGUGGCUGUGGCAAGACUUCC, 0.13; for GGCAGUGCUCAACACAGCGUGGCAAAGUGGCUGCAGCUAGACUGCC, 0.11. With GGCAGAACUCGACACAGCGUGGCAAUGUAGCUGUGGCUAGACUGCU the figure was 0.03; with GGCAGAACUCUACACAGCGUGGCAAAGUGGUUGUGGCAAGACUGCC, 0.01. With GGCAGAAGUCAACACAGCGUGGCAAAGUGGCUGUGGCUAGACUGGC the figure was 0.05. Take GGCAGAACUCAAAACAGCGUGGGAAAGUGGCCGUGGCUAGACUGCC: the self-cleavage came out at 0.16. GGCAGAACUCAACACAGCGUGGCAUAGUGGCUGUGGCUAGACUGUC: the self-cleavage was 0.11. With GGCAGAACUCGACACAGCCUGGCAAAGUGGCUGUGGCUAGACUGCC the figure was 0; with GGCAGAACUCAACCCAGCGUGGCAAAGUGACUGUGGCUAGACUGCC, 0.13; with GGCAGAACUCAAGACUGCGCGGCAAAGUGGCUGUGGCUAUACUGCC, 0.02. For GGCAGAACUCAACCCGGCGUGGCAAAGUGGCUGUGGCGAUACUGCC the value was 0.09; for GGCAGAACUCAACACAGCGUGGCCAAGUGGCCGUGGCUAGACUACC, 0.07; for GGCAGAACUCAACACAGCGUGGCUAAGUGGCUGUGGCUAGACGGCC, 0.09. For GGCAGAACUCCACACAGCGUGGGAAAGUGGCUGUGGCUAUACUGCC the value was 0; for GGCAGUGCACAACACAGCUUGGCAAAGUGGCUGUGUCUAGACUGCA, 0.09; for GGCAGUGCGCAACACAGCGUGGCAAAGUGGCUGUGGCAAUACUGCC, 0.06. GGCAGAACUCAACACAGCGUGGCAGAGUGGCUGUGGCCAGACUGCC: the self-cleavage was found to be 0.01.

With GGCAGAACUCAACACAGCGUGGCAAAGUGGCUGUGGCUGGACUGCU, the self-cleavage worked out at 0. With GGCAGUGCUCAACACAGCGGGGCAAAGUGGCUGUAGCUAGACUGCC the figure was 0.05; with GGCAGAACUCAGCACAGCGUGUCAAAGUGGCUGUGGCUAGACUGCU, 0.02; with GGCAGAAAUCAACACAGCGGGGCAAAGUGGCUCUGGCUAGACUGCC, 0.05.

In the case of GGCAGUGCUCAACACAGCGUGGCAAAGUGGCGGCGGCUAGACUGCC, the self-cleavage worked out at 0.03. Turning to GGCAGAACUCAACUCAGCGUGGCAAAGUGGUUGUGGCUAGACUGAC, the self-cleavage is 0.55.

As to GGCAGAACUCACCACAACGUGGCAAAGUGGCUGUGGCUAAACUGCC, the self-cleavage was determined as 0.08. With GGCAGAACUCAACACAGCGUGGCAACGUGGUUGUGGCUAGACUGCC the figure was 0.15.
